Measurements from US7619094B2, “Ketoamides with cyclic P4's as inhibitors of NS3 serine protease of hepatitis C virus” (Schering Corporation, priority 2004, dated 2009).

biological target: Recombinant heterodimeric HCV NS3/NS4A protease (strain 1a) (Hepatitis C virus genotype 1a, UniProt P27958); test: HCV continuous assay (spectrophotometric HCV NS3/NS4A serine protease inhibition assay); type: biochemical, HCV (strain 1a); conditions: Table 1; ranges of Ki* values in HCV continuous assay

**Q.** Which Ki does the source give for `C=CCNC(=O)C(=O)C(CCCC)NC(=O)[C@@H]1[C@@H]2[C@H](CN1C(=O)[C@@H](NC(=O)N[C@H](CN1CCCCS1(=O)=O)C1CCCCC1)C(C)(C)C)C2(C)C` (stereo partly drawn) [Compound 5225] here?
**A.** ≤ 0.05 µM

**Q.** For `C=CCNC(=O)C(=O)C(CCC)NC(=O)[C@@H]1[C@@H]2[C@H](CN1C(=O)[C@@H](NC(=O)N[C@H](CN1CCCCS1(=O)=O)C(C)(C)C)C1CCCCC1)C2(C)C` (stereo partly drawn) [Compound 5175], which Ki is on record?
**A.** ≤ 0.05 µM

**Q.** Which Ki does the source give for `CCCCC(NC(=O)[C@@H]1[C@@H]2[C@H](CN1C(=O)[C@@H](NC(=O)N[C@H](CN1CCCN(C)S1(=O)=O)C(C)(C)C)C(C)(C)C)C2(C)C)C(=O)C(N)=O` (stereo partly drawn) [Compound 5160] here?
**A.** ≤ 0.05 µM

**Q.** With `C=CCNC(=O)C(=O)C(CCCC)NC(=O)[C@@H]1[C@@H]2[C@H](CN1C(=O)[C@@H](NC(=O)N[C@H](CN1Cc3sccc3S1(=O)=O)C(C)(C)C)C(C)(C)C)C2(C)C` (stereo partly drawn) [Compound 5154] as the compound, how does the Ki read?
**A.** ≤ 0.05 µM

**Q.** How did the Ki turn out when `C#CCCC(NC(=O)[C@@H]1[C@@H]2[C@H](CN1C(=O)[C@@H](NC(=O)N[C@H](CN1CCCCS1(=O)=O)C1CCCCC1)C(C)(C)C)C2(C)C)C(=O)C(=O)NCC=C` (stereo partly drawn) [Compound 5230] was run?
**A.** ≤ 0.05 µM

**Q.** Which Ki does the source give for `C=CCNC(=O)C(=O)C(CCC)NC(=O)[C@@H]1[C@@H]2[C@H](CN1C(=O)[C@@H](NC(=O)NC1(CN3Cc4sccc4S3(=O)=O)CCCCC1)C(C)(C)C)C2(C)C` (stereo partly drawn) [Compound 5208] here?
**A.** ≤ 0.05 µM

**Q.** How did the Ki turn out when `C=CCNC(=O)C(=O)C(CCC(F)(F)F)NC(=O)[C@@H]1[C@@H]2[C@H](CN1C(=O)[C@@H](NC(=O)N[C@H](CN1CCCS1(=O)=O)C(C)(C)C)C1CCCCC1)C2(C)C` (stereo partly drawn) [Compound 5141] was run?
**A.** ≤ 0.05 µM

**Q.** For `CCCCC(NC(=O)[C@@H]1[C@@H]2[C@H](CN1C(=O)[C@@H](NC(=O)NC1(CN3Cc4sccc4S3(=O)=O)CCCCC1)C(C)(C)C)C2(C)C)C(=O)C(N)=O` (stereo partly drawn) [Compound 5214], which Ki is on record?
**A.** ≤ 0.05 µM

**Q.** With `CN1CCN(C[C@@H](NC(=O)N[C@H](C(=O)N2C[C@H]3[C@@H]([C@H]2C(=O)NC(CC2CC2)C(=O)C(N)=O)C3(C)C)C(C)(C)C)C(C)(C)C)S1(=O)=O` (stereo partly drawn) [Compound 5147] as the compound, how does the Ki read?
**A.** ≤ 0.05 µM

**Q.** Which Ki does the source give for `C=CCNC(=O)C(=O)C(CCC)NC(=O)[C@@H]1[C@@H]2[C@H](CN1C(=O)[C@@H](NC(=O)N[C@H](CN1CCCS1(=O)=O)C(C)(C)C)C1CCCCC1)C2(C)C` (stereo partly drawn) [Compound 5134] here?
**A.** ≤ 0.05 µM

**Q.** For `C=CCNC(=O)C(=O)C(CCCC)NC(=O)[C@@H]1[C@@H]2[C@H](CN1C(=O)[C@@H](NC(=O)N[C@H](CN1CCCN(C)S1(=O)=O)C(C)(C)C)C1CCCCC1)C2(C)C` (stereo partly drawn) [Compound 5240], which Ki is on record?
**A.** ≤ 0.05 µM

**Q.** Which Ki does the source give for `CC(C)N1CCN(C[C@@H](NC(=O)N[C@H](C(=O)N2C[C@H]3[C@@H]([C@H]2C(=O)NC(CC2CC2)C(=O)C(N)=O)C3(C)C)C(C)(C)C)C(C)(C)C)S1(=O)=O` (stereo partly drawn) [Compound 5218] here?
**A.** ≤ 0.05 µM

same assay, conditions: Table 2; ranges of Ki* values in HCV continuous assay

**Q.** `CC(C)(C)[C@H](NC(=O)N[C@H](CN1CCCCC1=O)C(C)(C)C)C(=O)N1C[C@H]2[C@@H]([C@H]1C(=O)NC(CC1CCC1)C(=O)C(N)=O)C2(C)C` (mixture of isomers) [Compound 5644] was tested. Which Ki did it give?
**A.** ≤ 0.05 µM

**Q.** For `C=CCNC(=O)C(=O)C(CCC(F)(F)F)NC(=O)[C@@H]1[C@@H]2[C@H](CN1C(=O)[C@@H](NC(=O)N[C@H](CN1CCOC1=O)C(C)C)C(C)(C)C)C2(C)C` (stereo partly drawn) [Compound 5616], which Ki is on record?
**A.** ≤ 0.05 µM

**Q.** For `CCCC(NC(=O)[C@@H]1[C@@H]2[C@H](CN1C(=O)[C@@H](NC(=O)N[C@H](CN1C(=O)c3ccncc3C1=O)C(C)(C)C)C(C)(C)C)C2(C)C)C(=O)C(N)=O` (stereo partly drawn) [Compound 5661], which Ki is on record?
**A.** ≤ 0.05 µM

**Q.** For `CCCC(NC(=O)[C@@H]1[C@@H]2[C@H](CN1C(=O)[C@@H](NC(=O)N[C@H](CN1C(=O)CCC1=O)C(C)(C)C)C(C)(C)C)C2(C)C)C(=O)C(N)=O` (stereo partly drawn) [Compound 5646], which Ki is on record?
**A.** ≤ 0.05 µM

**Q.** For `C=CCNC(=O)C(=O)C(CCC)NC(=O)[C@@H]1[C@@H]2[C@H](CN1C(=O)[C@@H](NC(=O)N[C@H](Cn1ccccc1=O)C(C)(C)C)C(C)(C)C)C2(C)C` (stereo partly drawn) [Compound 5650], which Ki is on record?
**A.** ≤ 0.05 µM

**Q.** `C=CCNC(=O)C(=O)C(CC1CC1)NC(=O)[C@@H]1[C@@H]2[C@H](CN1C(=O)[C@@H](NC(=O)N[C@H](CN1CCCCC1=O)C(C)(C)C)C(C)(C)C)C2(C)C` (stereo partly drawn) [Compound 5641] was tested. Which Ki did it give?
**A.** ≤ 0.05 µM

**Q.** Which Ki does the source give for `C=CCNC(=O)C(=O)C(CCC)NC(=O)[C@@H]1[C@@H]2[C@H](CN1C(=O)[C@@H](NC(=O)N[C@H](CN1C(=O)COCC1=O)C(C)(C)C)C(C)(C)C)C2(C)C` (stereo partly drawn) [Compound 5689] here?
**A.** ≤ 0.05 µM

**Q.** Which Ki does the source give for `C=CCNC(=O)C(=O)C(CCC)NC(=O)[C@@H]1[C@@H]2[C@H](CN1C(=O)[C@@H](NC(=O)N[C@H](Cn1ccccc1=O)C(C)C)C(C)(C)C)C2(C)C` (stereo partly drawn) [Compound 5605] here?
**A.** ≤ 0.05 µM

**Q.** Which Ki does the source give for `C#CCCC(NC(=O)[C@@H]1[C@@H]2[C@H](CN1C(=O)[C@@H](NC(=O)N[C@H](CN1CCCCC1=O)C(C)(C)C)C1CCCCC1)C2(C)C)C(=O)C(=O)NCC=C` (stereo partly drawn) [Compound 5721] here?
**A.** ≤ 0.05 µM

**Q.** How did the Ki turn out when `CC(C)(C)[C@H](NC(=O)NC1(CN2C(=O)c3ccccc3C2=O)CCCCC1)C(=O)N1C[C@H]2[C@@H]([C@H]1C(=O)NC(CC1CC1)C(=O)C(N)=O)C2(C)C` (stereo partly drawn) [Compound 5681] was run?
**A.** ≤ 0.05 µM

**Q.** `C=CCNC(=O)C(=O)C(CC1CC1)NC(=O)[C@@H]1[C@@H]2[C@H](CN1C(=O)[C@@H](NC(=O)N(C)[C@H](CN1C(=O)CNC1=O)C(C)(C)C)C(C)(C)C)C2(C)C` (stereo partly drawn) [Compound 5816] was tested. Which Ki did it give?
**A.** ≤ 0.05 µM

**Q.** `CCCCC(NC(=O)[C@@H]1[C@@H]2[C@H](CN1C(=O)[C@@H](NC(=O)N[C@H](CN1CCCC1=O)C(C)(C)C)C(C)(C)C)C2(C)C)C(=O)C(N)=O` (stereo partly drawn) [Compound 5624] was tested. Which Ki did it give?
**A.** ≤ 0.05 µM

**Q.** Which Ki does the source give for `CC1(C)CC(=O)N(C[C@@H](NC(=O)N[C@H](C(=O)N2C[C@H]3[C@@H]([C@H]2C(=O)NC(CC2CCC2)C(=O)C(N)=O)C3(C)C)C(C)(C)C)C(C)(C)C)C(=O)C1` (stereo partly drawn) [Compound 5762] here?
**A.** ≤ 0.05 µM

**Q.** For `C=CCNC(=O)C(=O)C(CCC)NC(=O)[C@@H]1[C@@H]2[C@H](CN1C(=O)[C@@H](NC(=O)N[C@H](CN1CCCCC1=O)C(C)C)C(C)(C)C)C2(C)C` (stereo partly drawn) [Compound 5633], which Ki is on record?
**A.** ≤ 0.05 µM

**Q.** How did the Ki turn out when `C=CCNC(=O)C(=O)C(CCCC)NC(=O)[C@@H]1[C@@H]2[C@H](CN1C(=O)[C@@H](NC(=O)N[C@H](CN1C(=O)c3cc[n+]([O-])cc3C1=O)C(C)(C)C)C(C)(C)C)C2(C)C` (stereo partly drawn) [Compound 5771] was run?
**A.** ≤ 0.05 µM

**Q.** For `C=CCNC(=O)C(=O)C(CC1CCC1)NC(=O)[C@@H]1[C@@H]2[C@H](CN1C(=O)[C@@H](NC(=O)N[C@H](CN1CCCCC1=O)C(C)(C)C)C1CCCCC1)C2(C)C` (stereo partly drawn) [Compound 5717], which Ki is on record?
**A.** ≤ 0.05 µM

**Q.** With `C=CCNC(=O)C(=O)C(CCC)NC(=O)[C@@H]1[C@@H]2[C@H](CN1C(=O)[C@@H](NC(=O)N[C@H](CN1C(=O)CC(C)(C)CC1=O)C(C)(C)C)C1CCCCC1)C2(C)C` (stereo partly drawn) [Compound 5776] as the compound, how does the Ki read?
**A.** ≤ 0.05 µM

**Q.** `CC(C)[C@@H](CN1CCOC1=O)NC(=O)N[C@H](C(=O)N1C[C@H]2[C@@H]([C@H]1C(=O)NC(CC1CCC1)C(=O)C(N)=O)C2(C)C)C(C)(C)C` (stereo partly drawn) [Compound 5612] was tested. Which Ki did it give?
**A.** ≤ 0.05 µM

**Q.** With `CC(C)(C)[C@H](NC(=O)N[C@H](CN1C(=O)c2ccncc2C1=O)C(C)(C)C)C(=O)N1C[C@H]2[C@@H]([C@H]1C(=O)NC(CC1CC1)C(=O)C(N)=O)C2(C)C` (stereo partly drawn) [Compound 5660] as the compound, how does the Ki read?
**A.** ≤ 0.05 µM

**Q.** How did the Ki turn out when `CC(C)[C@@H](Cn1ccccc1=O)NC(=O)N[C@H](C(=O)N1C[C@H]2[C@@H]([C@H]1C(=O)NC(CC1CC1)C(=O)C(N)=O)C2(C)C)C(C)(C)C` (stereo partly drawn) [Compound 5603] was run?
**A.** ≤ 0.05 µM

**Q.** How did the Ki turn out when `C=CCNC(=O)C(=O)C(CC1CC1)NC(=O)[C@@H]1[C@@H]2[C@H](CN1C(=O)[C@@H](NC(=O)N[C@H](CN1C(=O)Cc3ccccc3C1=O)C(C)(C)C)C(C)(C)C)C2(C)C` (stereo partly drawn) [Compound 5739] was run?
**A.** ≤ 0.05 µM
